The values below come from ChEMBL document CHEMBL4888484, “Replenishing the malaria drug discovery pipeline: Screening and hit evaluation of the MMV Hit Generation Library 1 (HGL1) against asexual blood stage Plasmodium falciparum ,using a nano luciferase reporter read-out” (2022).

Out of some 150,000 compounds screened, about 540 (0.36%) showed an effect of 50% or more. The list shows a part of the results.

For this assay, the system named is Plasmodium falciparum. Kind of assay: Primary screen in NF54 nanoGlo assay, in single point, at 2uM, 72h; a lower Z score goes with more inhibition. It counts as functional, Erythrocyte. To be noted: timepoint 72 hour.
As for `O=S(=O)(NCCCl)Nc1ccc(Br)cc1.O=S1(=O)NCCN1c1ccc(Br)cc1`, the “% Inhibition” value was 3% and the Z score is given as -0.5.
The corresponding values for `CCc1nnc(CNC(=O)Nc2ccc3c(c2)cc(C)n3CC)o1` are -6% and 0.61.
The corresponding values for `O=C(NCc1ccc(Cl)cc1)c1cccc(NC(=O)c2nnc(COc3ccc(F)cc3)s2)c1` are -9% and 0.94.
As for `COc1cc(C(=O)N(C)c2ccc(N(C)C)cc2)cc(OC)c1OC`, the “% Inhibition” value is on record as -6% and the Z score came out at 0.95.
On the same counts, the results for `COc1ccccc1CNC(=O)Cn1cc(-c2ccccc2)c2ncnc(N3CCOCC3)c21` are 11% and -1.6.
As to `CC(C)(C)N1C[C@@H](C(=O)Nc2n[nH]c(Cc3ccc(F)cc3)n2)CC1=O`, the “% Inhibition” value is -6% and the Z score stood at 0.9.
Turning to `CCCc1noc(-c2cccn3c(CNC(=O)c4ccc(C)cc4)nnc23)n1`, the “% Inhibition” value was -1% and the Z score is recorded as 0.13.
On the same counts, the results for `CCc1ncc(CN(C)C[C@H]2CCN(c3ccccc3)C2)cn1` are -8% and 1.51.
As for `COc1cc(OC)cc(C(=O)N2CCC3(CC2)NC(=O)c2ccccc2N3C)c1`, the “% Inhibition” value is given as -8% and the Z score came out at 0.98.
With `CC1CCCCC1CC(=O)NCC(O)c1cncs1` (stereo not given), the “% Inhibition” value is on record as -2% and the Z score came to 0.3.
On to `C#CCN1CCN(CCCS(=O)(=O)c2cccc(C)c2)CC1`, for which the “% Inhibition” value is listed as -5% and the Z score was 0.54.
On to `CN(Cc1ccon1)C(=O)c1csc2nc(-c3ccccc3Cl)cn12`, for which the “% Inhibition” value was -4% and the Z score is on record as 0.73.
As for `Cc1ccccc1Cn1cccc1CNC(=O)NC1CCCCC1`, the “% Inhibition” value turned out to be 14% and the Z score was -2.23.
The corresponding values for `N#Cc1cccc(CN2CCN(CCO)[C@@H]3CS(=O)(=O)C[C@@H]32)c1` are 2% and -0.43.
On the same counts, the results for `O=C1[C@@H]2C(c3ccccc3Cl)=NO[C@@H]2C(=O)N1c1ccc2ccccc2c1` are -9% and 1.2.
The corresponding values for `Cc1nc(CC(=O)N2CCN(c3ccnc4nncn34)CC2)cs1` are 0% and 0.04.
For the molecule `COC(=O)[C@H]1CN(c2cnc3ccccc3n2)C[C@@H]1c1cncn1C`, the “% Inhibition” value was -9% and the Z score came to 1.22.
For `NS(=O)(=O)c1ccc(NCc2ccncc2)c(C(F)(F)F)c1`, the “% Inhibition” value stood at 1% and the Z score is on record as -0.19.
The corresponding values for `CCOCCCC(=O)Nc1cc(CC)n[nH]1` are -22% and 4.73.
For `Cc1ccc(-n2nnnc2C2(NC(=O)C(F)(F)F)CCCC2)cc1`, the “% Inhibition” value is on record as -2% and the Z score worked out at 0.24.
On the same counts, the results for `CCc1nc(CN2CCC3CCC(C2)N3C(C)C)cs1` (stereo not given) are -9% and 1.17.
On the same counts, the results for `CC(C)c1nc(CN(C)Cc2nc(-c3ccccn3)no2)co1` are -20% and 2.13.
The corresponding values for `COCCCN(C(=O)N[C@@H](C)c1ccccc1)C1CCN(C)CC1` are -23% and 2.2.
On to `CCN(CCOc1ccccc1)Cc1ccn(CC)n1`, for which the “% Inhibition” value is -3% and the Z score is 0.36.
With `Cc1noc(C(=O)N2CCN(C(=O)c3ccco3)CC2)c1Cl`, the “% Inhibition” value was found to be 3% and the Z score is recorded as -0.51.
On the same counts, the results for `COc1ccc([C@@H]2CCCN2C(=O)c2cnns2)cc1OC` are -11% and 1.
The corresponding values for `O=C(Cc1c(F)cccc1Cl)N1CC(OCC(F)(F)F)C1` are -13% and 2.28.
On the same counts, the results for `CC(C)N(CCS(C)(=O)=O)Cc1ccc(Cl)cc1F` are -5% and 0.83.
Consider `CCC(=O)NCC(=O)Nc1cc(CCc2ccccc2)ccn1`, for which the “% Inhibition” value amounted to 0% and the Z score is given as 0.01.
The corresponding values for `O=c1[nH]ncc(N2CCCC2)c1/C=C/C1CCCCC1` are -5% and 0.72.
On to `N#C[C@@H]1C(=O)N=C(N2CCN(C(c3ccccc3)c3ccccc3)CC2)NC12CCCC2`, for which the “% Inhibition” value is listed as -10% and the Z score stood at 1.33.
Consider `Cc1c(-c2c(-c3ccccc3)ncn2CC[C@H](C)O)[nH]c2ccc(F)cc12`, for which the “% Inhibition” value was -14% and the Z score stood at 2.32.
As for `Cn1cc(C(=O)Nc2ccc3c(c2)NCCC3)cn1`, the “% Inhibition” value is listed as -16% and the Z score is recorded as 2.43.
Turning to `Cc1ccc(Cn2c(=O)c3nn(C)cc3n3c(=O)n(Cc4nc(-c5cccc(C)c5)oc4C)nc23)cc1`, the “% Inhibition” value is on record as 1% and the Z score is reported as -0.12.
Turning to `CS(=O)(=O)c1ccc(Oc2ccc(C(F)(F)F)nn2)cc1`, the “% Inhibition” value is recorded as -13% and the Z score was determined as 2.12.
The corresponding values for `Cc1ccsc1-c1nc(-c2ccc3nnn(C)c3c2)no1` are -14% and 2.42.
The corresponding values for `CCCN(CC(=O)N(C)C)CC1CCC(C)CC1` (stereo not given) are -7% and 0.85.
On the same counts, the results for `O=C(C[C@@H]1COC2(C1)CN(C(=O)c1cn[nH]c1)C2)N1CCCC1` are -1% and 0.22.
For the molecule `CC(NC(=O)C1CC(=O)N(C)C1)c1ccc(N2CCN(C)CC2)cc1` (stereo not given), the “% Inhibition” value is reported as -1% and the Z score was found to be 0.19.
As for `Cc1ccc(S(=O)(=O)N2CCC3(CC2)C[C@@H]3C(=O)O)c(C)c1`, the “% Inhibition” value is -3% and the Z score is reported as 0.29.
For `CC(C)(C)c1ccc(CCC(N)=O)cc1`, the “% Inhibition” value is -8% and the Z score came out at 0.84.
The corresponding values for `Cc1ccc(F)cc1NC(=O)C1CCC(NC(=O)OC(C)(C)C)C1` (stereo not given) are -5% and 0.88.
Regarding `CN(Cc1ncc[nH]1)C(=O)c1cc(COc2ccc3c(c2)OCO3)[nH]n1`, the “% Inhibition” value was -2% and the Z score amounted to 0.29.
Consider `COc1ccc(CCc2nc(NC(=O)[C@H]3CC(=O)N(C)C3)n[nH]2)cc1OC`, for which the “% Inhibition” value stood at 15% and the Z score was -2.27.
For the molecule `CCc1nn(C)cc1C(=O)N1CCC[C@H](OC(=O)N(C)C)C1`, the “% Inhibition” value is given as -12% and the Z score was determined as 1.57.
Take `Cc1cc(C)nc(O[C@H]2CCCN(C(=O)c3ccc(S(=O)(=O)N4CCCC4)cc3)C2)n1`: the “% Inhibition” value is reported as 14% and the Z score is reported as -1.95.
On the same counts, the results for `O=C(NCc1nccs1)C1(c2ccncc2)CCC1` are -4% and 0.63.
With `Cc1nc(CC(=O)N2CCCc3cc(Cl)cc(Cl)c32)cs1`, the “% Inhibition” value amounted to 4% and the Z score was -0.54.
On the same counts, the results for `Cc1ccc(S(=O)(=O)Nc2c(S(=O)(=O)c3ccc(C)cc3)c3nc4ccccc4nc3n2C[C@H]2CCCO2)cc1` are 48% and -4.28.
With `COCc1ccc(NC(=O)N2CCC[C@@H]2CCO)cc1C#N`, the “% Inhibition” value is 16% and the Z score is -1.56.
On the same counts, the results for `CCC(=O)NCCc1csc(C2CCN(C(=O)c3ccc(F)cc3)CC2)n1` are -3% and 0.36.
The corresponding values for `Fc1ccccc1-c1noc(N2CCN(c3ccccn3)CC2)n1` are -24% and 2.13.
Take `CCN1CCC(CC(=O)N[C@H](c2ccccn2)C(F)(F)F)CC1`: the “% Inhibition” value was -14% and the Z score was determined as 1.94.
The corresponding values for `CCCN(CCCC(=O)O)C1C2CCOC2C1(C)C` (stereo not given) are 1% and -0.08.
In the case of `CC1(C)CCc2nnc([C@]3(C)CCCO3)n2C1`, the “% Inhibition” value is given as -10% and the Z score was determined as 1.54.
On the same counts, the results for `Cc1nc(N2CCCC2)c2c(C(=O)Nc3ccc(F)cc3)c(C)oc2n1` are -6% and 1.19.
On the same counts, the results for `Cn1cc(S(=O)(=O)Nc2ccc(-c3ccccc3)cn2)cn1` are -9% and 1.02.
As to `O=C(c1cc2ccccc2cc1O)N1CCN(Cc2ccc(Cl)s2)CC1`, the “% Inhibition” value is recorded as -6% and the Z score came out at 0.77.
`Cc1cccc(CN2CCC[C@@]3(CCN(C(=O)c4cccnc4C)C3)C2)c1`: the “% Inhibition” value is reported as -18% and the Z score worked out at 2.38.
For `CS(=O)(=O)N1CCc2cc(C(=O)N3CCC(C#N)CC3)ccc21`, the “% Inhibition” value is reported as -22% and the Z score was found to be 1.82.
On to `COCCO[C@@H](C)c1nnc2n1CC(C)(C)CC2`, for which the “% Inhibition” value is listed as -4% and the Z score is reported as 0.79.
Regarding `Cc1noc(-c2sccc2NC(=O)c2cccc(C(F)(F)F)c2)n1`, the “% Inhibition” value is on record as -5% and the Z score turned out to be 1.02.
The corresponding values for `CC[C@H](NC(=O)CCc1cnn(C)c1)c1ncnn1CC` are -3% and 0.59.
Regarding `COc1ccc(-n2nc(C)cc2NC(=O)N2CCC(F)(F)CC2)cc1`, the “% Inhibition” value came to 12% and the Z score is given as -2.44.
With `Cc1cc(N2C(=O)Cn3cccc3[C@@H]2C(=O)NC2CCC(C)CC2)ccc1Br` (stereo not given in full), the “% Inhibition” value was -6% and the Z score is on record as 0.74.
Take `C[C@H](NC(=O)CC1CCCCC1)C(=O)N(CC#N)c1ccccc1`: the “% Inhibition” value came out at 2% and the Z score is -0.31.
Regarding `CCc1ccc(CNC(=O)[C@H]2CCS(=O)(=O)C2)s1`, the “% Inhibition” value worked out at 9% and the Z score was -1.56.
As to `Cn1cc(C(=O)Nc2cccc3nsnc23)nn1`, the “% Inhibition” value is -7% and the Z score came to 0.99.
The corresponding values for `Cc1cccnc1C[C@H](C)n1cc(-c2cc(O)c3ccccc3n2)nn1` are 9% and -1.11.
On the same counts, the results for `O=C(NC1CCCCCC1)c1csc(C(=O)NC2CCCC2)n1` are -13% and 2.42.
As to `Cc1nc(C)c(-c2cc(C(=O)NCc3ccc(F)cc3)[nH]n2)s1`, the “% Inhibition” value is 17% and the Z score is reported as -2.38.
On to `O=C(CCn1cncn1)NCC1CN(S(=O)(=O)c2ccccc2)C2CCN1C2` (stereo not given), for which the “% Inhibition” value was -7% and the Z score came to 0.77.
Consider `O=C(Nc1cccnc1)[C@H](Cc1ccccc1)NC(=O)N1CCCC1`, for which the “% Inhibition” value is recorded as -7% and the Z score stood at 0.87.
On the same counts, the results for `N#Cc1cc(F)c(N2CC[C@H](O)C2)c(F)c1` are -8% and 1.31.
On to `CCc1nc(-c2ccc(-c3noc(CCNS(=O)(=O)c4ccc(C)cc4)n3)cc2)cs1`, for which the “% Inhibition” value is given as -16% and the Z score worked out at 1.63.
Take `O=S(=O)(CCC1CCCCC1)NC[C@H]1CCCO1`: the “% Inhibition” value was found to be 24% and the Z score was -2.73.
The corresponding values for `CN(C)c1nc(CN2Cc3ccccc3C[C@@H]2C(=O)NC2CC2)ns1` are -1% and 0.19.
Regarding `Cc1ccc(C(=O)c2oc3ccccc3c2NC(=O)c2cc(-c3ccccc3)on2)cc1F`, the “% Inhibition” value is listed as 12% and the Z score is -1.37.
Consider `Cc1noc(C)c1CCC(=O)N1CC(C)OC(C)C1` (stereo not given), for which the “% Inhibition” value is -1% and the Z score is given as 0.1.
Regarding `CC(C)[C@H]1CCc2[nH]c(=O)c(-c3noc(-c4ccn(C)c(=O)c4)n3)cc2C1`, the “% Inhibition” value was -13% and the Z score stood at 1.61.
On the same counts, the results for `CC1CC(NC2CC3(CCCCC3)C2)c2nccn21` (stereo not given) are 4% and -0.39.
`Cc1ccc(O)c(CN[C@H]2COC[C@H]2n2ccnn2)n1`: the “% Inhibition” value is -4% and the Z score was 0.61.
On the same counts, the results for `Cc1ccc(-c2ncc(CNCCCN3CCCO[C@@H](C)C3)s2)o1` are -9% and 1.05.
Turning to `CC[C@@H](Cc1ccc(C)cc1)N(C)C(=O)c1cncc(C(=O)O)c1`, the “% Inhibition” value is listed as 11% and the Z score is reported as -1.22.
In the case of `CC1(C(=O)N2CCC(OCCCc3ccccc3)C2)CCC(=O)NC1` (stereo not given), the “% Inhibition” value was -12% and the Z score was 1.72.
